According to article PMC6634424:
Results are given in words; binding and its absence hold for the method and conditions named. Some binding calls cover weakened binding; strength is not graded here.

What was measured:
[1] = target: HopZ1a^wt (Pseudomonas syringae) (UniProt Q6VE93); experiment: two-hybrid; Y2H: LexA-HopZ1a (wt or C216A) bait, array of 46 NLS-B42-HA-PBL preys, diploid yeast, X-Gal reporter plates, 30°C
[2] = target: T1, ZED1^wt (Arabidopsis thaliana) (UniProt Q8LGB6); experiment: two-hybrid; Y3H: LexA-ZED1 bait, 46 PBL preys, HopZ1b expressed from the ho locus
T1 sequence: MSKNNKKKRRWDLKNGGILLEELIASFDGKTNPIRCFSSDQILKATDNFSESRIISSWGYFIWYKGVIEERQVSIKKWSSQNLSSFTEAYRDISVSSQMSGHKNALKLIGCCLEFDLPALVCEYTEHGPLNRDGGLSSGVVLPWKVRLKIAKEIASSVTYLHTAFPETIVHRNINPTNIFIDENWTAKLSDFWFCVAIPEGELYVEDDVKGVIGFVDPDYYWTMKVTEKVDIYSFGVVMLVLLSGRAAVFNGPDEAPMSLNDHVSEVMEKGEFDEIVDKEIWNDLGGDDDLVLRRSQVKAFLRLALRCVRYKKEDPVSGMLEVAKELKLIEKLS

[3] = target: T2, ZRK1/RKS1 (Arabidopsis thaliana) (UniProt Q9SVY5); experiment: two-hybrid; Y2H: LexA-ZRK1/RKS1 bait, 46 PBL preys, no AvrAC; X-Gal reporter plates, 30°C
T2 sequence: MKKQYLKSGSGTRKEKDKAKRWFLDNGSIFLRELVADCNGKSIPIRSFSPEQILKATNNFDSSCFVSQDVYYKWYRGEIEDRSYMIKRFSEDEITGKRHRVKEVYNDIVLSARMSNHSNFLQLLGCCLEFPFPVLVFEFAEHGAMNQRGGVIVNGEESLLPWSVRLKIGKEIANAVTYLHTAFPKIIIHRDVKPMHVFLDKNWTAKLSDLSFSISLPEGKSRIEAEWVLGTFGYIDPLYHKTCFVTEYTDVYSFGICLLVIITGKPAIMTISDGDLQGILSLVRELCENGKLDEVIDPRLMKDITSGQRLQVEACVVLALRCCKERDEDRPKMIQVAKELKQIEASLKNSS

[4] = target: T1, ZED1^wt (Arabidopsis thaliana); experiment: two-hybrid; Y3H: LexA-ZED1 (wt or mutant) bait, PBL (wt or mutant) preys, HopZ1a^wt expressed from the yeast ho locus

PBL8 (from UniProt Q8GXZ3 1-410) was tested, and the binding [1] was “no binding”.

With PBL3 (from UniProt O49840 1-426) the binding [1] was “no binding”.

PBL27 (from UniProt Q1PDV6 1-513) was tested, and the binding [1] was “no binding”.

PBL15 (from UniProt Q9SY91 1-424) was tested, and the binding [1] was “no binding”.

In the case of PBL2 (from UniProt O49839 1-426), the binding [1] is reported as “no binding”.

With PBL13 (from UniProt F4JZW1 1-494) the binding [1] was “no binding”.

PBL4 (from UniProt Q5PP29 1-412) was tested, and the binding [1] was “no binding”.

PBL18 (from UniProt Q5XF79 1-387) was tested, and the binding [1] was “no binding”.

In the case of PBL21 (from UniProt Q9LDZ5 1-381), the binding [1] is reported as “no binding”.

B1: PBL8 (protein, UniProt Q8GXZ3 1-410)
chain: MGNCGTRDEAAVFTPQAQAQQLQKKHSRSVSDLSDPSTPRFRDDSRTPISYAQVIPFTLFELETITKSFRPDYILGEGGFGTVYKGYIDDNLRVGLKSLPVAVKVLNKEGLQGHREWLTEVNFLGQLRHPNLVKLIGYCCEDDHRLLVYEFMLRGSLENHLFRKTTAPLSWSRRMMIALGAAKGLAFLHNAERPVIYRDFKTSNILLDSDYTAKLSDFGLAKAGPQGDETHVSTRVMGTYGYAAPEYVMTGHLTARSDVYSFGVVLLEMLTGRKSVDKTRPSKEQNLVDWARPKLNDKRKLLQIIDPRLENQYSVRAAQKACSLAYYCLSQNPKARPLMSDVVETLEPLQCTGDALIPCATTTAGAAFAMGGVPDYRMHRRFAKNVGPGAICRSPNPNYSPGGPAACRVR
B1 was tested, and the binding [2] was “binds”, the binding [3] was “binds” and the binding [4] was “binds”.

B2: PBL22 (protein, UniProt Q9SFX0 1-381)
chain: MRCFSCLNTQTNDMRINIDTLSDLTDYASVATKIDPRGTGSKSGILVNGKVNSPKPGGGARSFTFKELAAATKNFREGNIIGKGGFGSVYKGRLDSGQVVAIKQLNPDGHQGNQEFIVEVCMLSVFHHPNLVTLIGYCTSGAQRLLVYEYMPMGSLEDHLFDLEPDQTPLSWYTRMKIAVGAARGIEYLHCKISPSVIYRDLKSANILLDKEFSVKLSDFGLAKVGPVGNRTHVSTRVMGTYGYCAPEYAMSGRLTIKSDIYSFGVVLLELISGRKAIDLSKPNGEQYLVAWARPYLKDPKKFGLLVDPLLRGKFSKRCLNYAISITEMCLNDEANHRPKIGDVVVAFEYIASQSKSYEDRRTARKSTDSNRLRRETKQSY
B2 was tested, and the binding [4] was “binds”.

B3: PBL5 (protein, UniProt Q9LQQ8 1-423)
chain: MGCFGCSKKSSKRSETNKDTVINRKIVGGTTSVAKSDKRDDQTQPSSDSTKVSPYRDVNNEGGVGKEDQLSLDVKGLNLNDQVTGKKAQTFTFQELAEATGNFRSDCFLGEGGFGKVFKGTIEKLDQVVAIKQLDRNGVQGIREFVVEVLTLSLADHPNLVKLIGFCAEGDQRLLVYEYMPQGSLEDHLHVLPSGKKPLDWNTRMKIAAGAARGLEYLHDRMTPPVIYRDLKCSNILLGEDYQPKLSDFGLAKVGPSGDKTHVSTRVMGTYGYCAPDYAMTGQLTFKSDIYSFGVVLLELITGRKAIDNTKTRKDQNLVGWARPLFKDRRNFPKMVDPLLQGQYPVRGLYQALAISAMCVQEQPTMRPVVSDVVLALNFLASSKYDPNSPSSSSGKNPSFHRDRDDEEKRPHLVKETECEGSS
B3 was tested, and the binding [2] was “binds” and the binding [4] was “binds”.

B4: PBL9 (protein, UniProt Q06548 1-410)
chain: MGICLSAQVKAESSGASTKYDAKDIGSLGSKASSVSVRPSPRTEGEILQSPNLKSFSFAELKSATRNFRPDSVLGEGGFGCVFKGWIDEKSLTASRPGTGLVIAVKKLNQDGWQGHQEWLAEVNYLGQFSHRHLVKLIGYCLEDEHRLLVYEFMPRGSLENHLFRRGLYFQPLSWKLRLKVALGAAKGLAFLHSSETRVIYRDFKTSNILLDSEYNAKLSDFGLAKDGPIGDKSHVSTRVMGTHGYAAPEYLATGHLTTKSDVYSFGVVLLELLSGRRAVDKNRPSGERNLVEWAKPYLVNKRKIFRVIDNRLQDQYSMEEACKVATLSLRCLTTEIKLRPNMSEVVSHLEHIQSLNAAIGGNMDKTDRRMRRRSDSVVSKKVNAGFARQTAVGSTVVAYPRPSASPLYV
In the case of B4, the binding [4] is reported as “binds”.

B5: PBL13 (protein, UniProt F4JZW1 1-494)
chain: MVLCFQDPDNIYSPKKTKKDDGERVITKQKSFLGLSILDISNPSSTTLSEDLSISLAGSDLHVFTQAELRVITQSFSSSNFLGEGGFGPVHKGFIDDKLRPGLKAQPVAVKLLDLDGLQGHREFMTEVMCLGKLKHPNLVKLIGYCCEEAHRLLVYEFMPRGSLESQLFRRCSLPLPWTTRLNIAYEAAKGLQFLHEAEKPIIYRDFKASNILLDSDYTAKLSDFGLAKDGPQGDDTHVSTRVMGTQGYAAPEYIMTGHLTAKSDVYSFGVVLLELLTGRKSVDIARSSRKETLVEWARPMLNDARKLGRIMDPRLEDQYSETGARKAATLAYQCLRYRPKTRPDISTVVSVLQDIKDYKDDIPIGIFTYTVPTKPRREVKETSLQNFDKPRRETKVTSLQNFDKTRREVKDTSLQNFDKTRREVKETSLQNFDKTRREVKETSLQNFDKPRNVSTTDNHQKFRSPAHTARNHRITLRNGYNSPMRNEAGGERY
In the case of B5, the binding [4] is reported as “binds”.

B6: PBL36 (protein, UniProt F4J0D2 1-476)
chain: MATKLESFKVVEKLGVEKGEKGKMMSKKKNVKKDGDESESGFWFRFKFIFSCISSRSKVDSSMNATAVIAEPKKVIEKLEGHPAPTKDTGCAESGSSTPLMSGELKYSSKLRIFMFNDLKLATRNFRPESLLGEGGFGCVFKGWIEENGTAPVKPGTGLTVAVKTLNPDGLQGHKEWLAEINFLGNLVHPSLVKLVGYCMEEDQRLLVYEFMPRGSLENHLFRRTLPLPWSVRMKIALGAAKGLAFLHEEAEKPVIYRDFKTSNILLDGEYNAKLSDFGLAKDAPDEKKSHVSTRVMGTYGYAAPEYVMTGHLTTKSDVYSFGVVLLEILTGRRSVDKSRPNGEQNLVEWVRPHLLDKKRFYRLLDPRLEGHYSIKGAQKATQVAAQCLNRDSKARPKMSEVVEALKPLPNLKDFASSSSSFQTMQPVAKNGVRTQGGGFVSRNGPPMRSLSSLNLPQASPYRYARQSPKPKGKEP
With B6 the binding [4] was “binds weakly”.

B7: PBL12 (protein, UniProt O64842 1-424)
chain: MAVFKKKKTSLTSLFLGCYKAKNASKYEGGEKAVMKIRTCPAFKRLSLSDISDPSSPMSVMDDLSHSFTSQKLRLFTLSELRVITHNFSRSNMLGEGGFGPVYKGFIDDKVKPGIEAQPVAVKALDLHGHQGHREWLAEILFLGQLSNKHLVKLIGFCCEEEQRVLVYEYMPRGSLENQLFRRNSLAMAWGIRMKIALGAAKGLAFLHEAEKPVIYRDFKTSNILLDSDYNAKLSDFGLAKDGPEGEHTHVTTRVMGTQGYAAPEYIMTGHLTTMNDVYSFGVVLLELITGKRSMDNTRTRREQSLVEWARPMLRDQRKLERIIDPRLANQHKTEAAQVAASLAYKCLSQHPKYRPTMCEVVKVLESIQEVDIRKHDGNNNKEGKKFVDINKFRHHRKGKRRVNIAYSDSLVYKESKAKQNDGI
B7 was tested, and the binding [4] was “binds weakly”.

B8: PBL11 (protein, UniProt P43293 1-389)
chain: MGGCFSNRIKTDIASSTWLSSKFLSRDGSKGSSTASFSYMPRTEGEILQNANLKNFSLSELKSATRNFRPDSVVGEGGFGCVFKGWIDESSLAPSKPGTGIVIAVKRLNQEGFQGHREWLAEINYLGQLDHPNLVKLIGYCLEEEHRLLVYEFMTRGSLENHLFRRGTFYQPLSWNTRVRMALGAARGLAFLHNAQPQVIYRDFKASNILLDSNYNAKLSDFGLARDGPMGDNSHVSTRVMGTQGYAAPEYLATGHLSVKSDVYSFGVVLLELLSGRRAIDKNQPVGEHNLVDWARPYLTNKRRLLRVMDPRLQGQYSLTRALKIAVLALDCISIDAKSRPTMNEIVKTMEELHIQKEASKEQQNPQISIDNIINKSPQAVNYPRPSIM
B8 was tested, and the binding [4] was “binds weakly”.
